Laboratory results as given in publication PMC9911399, “Two distinct binding modes provide the RNA-binding protein RbFox with extraordinary sequence specificity”.
Substitutions are numbered along the chain they refer to; changes in the protein carry UniProt numbers. The list shows a part of the results.

T1: RBFOX1 RRM RbFoxmut (Fox-RRM*) (Homo sapiens, UniProt Q9NWB1 109-208, R118D;E147R;N151S;E152T)
T1 sequence: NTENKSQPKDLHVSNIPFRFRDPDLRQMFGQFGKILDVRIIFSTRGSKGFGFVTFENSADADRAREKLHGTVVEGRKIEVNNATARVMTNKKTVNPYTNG

B1: GCCCGAA (DNA:RNA)
RNA: GGGAGACCGGAAUUCAGAUUGUCCGCCCGAAUUAAAUCCCGUCGUAGCCACCA
DNA 1: CAATCTGAATTCCGGTCTCCC
DNA 2: TGGTGGCTACGACGGGATT
B2: AGACGAG (DNA:RNA)
RNA: B1 RNA with G25A, C26G, C27A, A31G
DNA 1: CAATCTGAATTCCGGTCTCCC
DNA 2: TGGTGGCTACGACGGGATT
B3: GGGUCUG (DNA:RNA)
RNA: B1 RNA with C26G, C27G, C28U, G29C, A30U, A31G
DNA 1: CAATCTGAATTCCGGTCTCCC
DNA 2: TGGTGGCTACGACGGGATT
B4: CUCCCCG (DNA:RNA)
RNA: B1 RNA with G25C, C26U, G29C, A30C, A31G
DNA 1: CAATCTGAATTCCGGTCTCCC
DNA 2: TGGTGGCTACGACGGGATT
B5: CCAGCCC (DNA:RNA)
RNA: B1 RNA with G25C, C27A, C28G, G29C, A30C, A31C
DNA 1: CAATCTGAATTCCGGTCTCCC
DNA 2: TGGTGGCTACGACGGGATT
B6: UCAGGAC (DNA:RNA)
RNA: B1 RNA with G25U, C27A, C28G, A31C
DNA 1: CAATCTGAATTCCGGTCTCCC
DNA 2: TGGTGGCTACGACGGGATT
B7: GUGGUGG (DNA:RNA)
RNA: B1 RNA with C26U, C27G, C28G, G29U, A30G, A31G
DNA 1: CAATCTGAATTCCGGTCTCCC
DNA 2: TGGTGGCTACGACGGGATT
B8: GGGCUCU (DNA:RNA)
RNA: B1 RNA with C26G, C27G, G29U, A30C, A31U
DNA 1: CAATCTGAATTCCGGTCTCCC
DNA 2: TGGTGGCTACGACGGGATT
B9: CCAGGGU (DNA:RNA)
RNA: B1 RNA with G25C, C27A, C28G, A30G, A31U
DNA 1: CAATCTGAATTCCGGTCTCCC
DNA 2: TGGTGGCTACGACGGGATT
B10: UGCGUAU (DNA:RNA)
RNA: B1 RNA with G25U, C26G, C28G, G29U, A31U
DNA 1: CAATCTGAATTCCGGTCTCCC
DNA 2: TGGTGGCTACGACGGGATT
B11: UUUAUAU (DNA:RNA)
RNA: B1 RNA with G25U, C26U, C27U, C28A, G29U, A31U
DNA 1: CAATCTGAATTCCGGTCTCCC
DNA 2: TGGTGGCTACGACGGGATT
B12: UAUCGUC (DNA:RNA)
RNA: B1 RNA with G25U, C26A, C27U, A30U, A31C
DNA 1: CAATCTGAATTCCGGTCTCCC
DNA 2: TGGTGGCTACGACGGGATT
B13: UAACGCG (DNA:RNA)
RNA: B1 RNA with G25U, C26A, C27A, A30C, A31G
DNA 1: CAATCTGAATTCCGGTCTCCC
DNA 2: TGGTGGCTACGACGGGATT
B14: GAAAGUA (DNA:RNA)
RNA: B1 RNA with C26A, C27A, C28A, A30U
DNA 1: CAATCTGAATTCCGGTCTCCC
DNA 2: TGGTGGCTACGACGGGATT
B15: UCAAAAU (DNA:RNA)
RNA: B1 RNA with G25U, C27A, C28A, G29A, A31U
DNA 1: CAATCTGAATTCCGGTCTCCC
DNA 2: TGGTGGCTACGACGGGATT
B16: UAUGUCG (DNA:RNA)
RNA: GGGAGACCGGAAUUCAGAUUGUCCUAUGUCGUUAAAUCCCGUCGUAGCCACCA
DNA 1: CAATCTGAATTCCGGTCTCCC
DNA 2: TGGTGGCTACGACGGGATT
B17: GGCUUAG (DNA:RNA)
RNA: B1 RNA with C26G, C28U, G29U, A31G
DNA 1: CAATCTGAATTCCGGTCTCCC
DNA 2: TGGTGGCTACGACGGGATT
B18: GUUCAUA (DNA:RNA)
RNA: B1 RNA with C26U, C27U, G29A, A30U
DNA 1: CAATCTGAATTCCGGTCTCCC
DNA 2: TGGTGGCTACGACGGGATT
B19: GGAAUCC (DNA:RNA)
RNA: B16 RNA with U25G, A26G, U27A, G28A, G31C
DNA 1: CAATCTGAATTCCGGTCTCCC
DNA 2: TGGTGGCTACGACGGGATT
B20: AGCUUAA (DNA:RNA)
RNA: B1 RNA with G25A, C26G, C28U, G29U
DNA 1: CAATCTGAATTCCGGTCTCCC
DNA 2: TGGTGGCTACGACGGGATT

What follows are binders tested against T1, RBFOX1 RRM RbFoxmut (Fox-RRM*) (assay: EMSA; HiTS-Eq, 1 nM pool, 10 min; buffer printed only for the single-RNA assays: 10 mM Tris pH 7.5, 150 mM NaCl, 3.4 mM EDTA, 0.001% NP-40, 30 C). Conditions: tags: His6 N-terminal (pET28a); label: 5' 32P.
In short: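 Relative association constants, normalised to the cognate motif, were derived by comparing read counts of each RNA species with those of the control reaction. The RNA sequenced was the free fraction, separated by 8% native PAGE after a 10 min equilibration in 50 µL of 1 nM 5′-radiolabelled RNA (7 randomized nucleotides) with increasing concentrations of purified wild-type or mutant RbFox RRM.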

| Binder | binding signal |
| --- | --- |
| B1 | 0.0876 KA relative to UGCAUGU |
| B2 | 0.109 KA relative to UGCAUGU |
| B3 | 0.317 KA relative to UGCAUGU |
| B4 | 0.107 KA relative to UGCAUGU |
| B5 | 0.0899 KA relative to UGCAUGU |
| B6 | 0.0849 KA relative to UGCAUGU |
| B7 | 0.15 KA relative to UGCAUGU |
| B8 | 0.0774 KA relative to UGCAUGU |
| B9 | 0.0867 KA relative to UGCAUGU |
| B10 | 0.143 KA relative to UGCAUGU |
| B11 | 0.0943 KA relative to UGCAUGU |
| B12 | 0.0704 KA relative to UGCAUGU |
| B13 | 0.105 KA relative to UGCAUGU |
| B14 | 0.116 KA relative to UGCAUGU |
| B15 | 0.0761 KA relative to UGCAUGU |
| B16 | 0.133 KA relative to UGCAUGU |
| B17 | 0.0838 KA relative to UGCAUGU |
| B18 | 0.116 KA relative to UGCAUGU |
| B19 | 0.184 KA relative to UGCAUGU |
| B20 | 0.11 KA relative to UGCAUGU |
